We go through seven molecules from patent publication US20250304717A1, “CAMPTOTHECIN DERIVATIVE AND LIGAND-DRUG CONJUGATE” (HAINAN SIMCERE ZAIMING PHARMACEUTICAL CO., LTD., priority 2022, published 2025).

First the molecules themselves.
B1: ADC-L1-19-9 (conjugate)
heavy: EVQLLESGGGLVQPGGSLRLSCAASGFTFSNYAMSWVRQAPGKGLEWVSSISHNSGSTYYADSVKGRFTISRDNSKNTLYLQMNSLRAEDTAVYYCAKFISARKSLGRSYSNGMDVWGQGTLVTVSS[human IgG1 constant region omitted]
light: QSVLTQPPSASGTPGQRVTISCTGSSSNIGSNDVTWYQQLPGTAPKLLIYADSKRPSGVPDRFSGSKSGTSASLAISGLRSEDEADYYCGTWDYSLSGYVFGGGTKLTVLRTVAAPSVFIFPPSDEQLKSGTASVVCLLNNFYPREAKVQWKVDNALQSGNSQESVTEQDSKDSTYSLSSTLTLSKADYEKHKVYACEVTHQGLSSPVTKSFNRGEC
B2: ADC-L1-19-P1-9 (conjugate)
heavy: B1 heavy
light: B1 light
B3: ADC-L1-19-10 (conjugate)
heavy: QVQLRESGPGLVKPSETLSLTCTVSGFDISSYYMSWVRQPPGKGLEWIGAIGISGNAYYASWAKSRVTISRDTSKNQFSLKLSSVTAADTAVYYCARDHPTYGMDLWGPGTLVTVSS[human IgG1 constant region omitted]
light: SYELTQPPSVSVAPGKTARITCEGNNIGSKAVHWYQQKPGQAPVLVIYDDDERPSGIPERFSGSNSGNTATLTISRVEAGDEADYYCQVWDSSAYVFGGGTKLTVLRTVAAPSVFIFPPSDEQLKSGTASVVCLLNNFYPREAKVQWKVDNALQSGNSQESVTEQDSKDSTYSLSSTLTLSKADYEKHKVYACEVTHQGLSSPVTKSFNRGEC
B4: ADC-L1-19-P1-10 (conjugate)
heavy: B3 heavy
light: B3 light
B5: ADC-L1-19-8 (conjugate)
heavy: QVQLQESGPGLVKPSQTLSLTCTVSGYAFTAYNIHWVRQAPGQGLEWMGSFDPYDGGSSYNQKFKDRLTISKDTSKNQVVLTMTNMDPVDTATYYCARGWYYFDYWGHGTLVTVSS[human IgG1 constant region omitted]
light: DIVMTQTPLSLPVTPGEPASISCRASKSISKYLAWYQQKPGQAPRLLIYSGSTLQSGIPPRFSGSGYGTDFTLTINNIESEDAAYYFCQQHDESPYTFGEGTKVEIKRTVAAPSVFIFPPSDEQLKSGTASVVCLLNNFYPREAKVQWKVDNALQSGNSQESVTEQDSKDSTYSLSSTLTLSKADYEKHKVYACEVTHQGLSSPVTKSFNRGEC
B6: ADC-L1-19-P1-8 (conjugate)
heavy: B5 heavy
light: B5 light
B7: ADC-L1-14-P1-3 (conjugate)
heavy: EVQLVQSGAEVKKPGASVKVSCKASGYTFTRNFMHWVRQAPGQGLEWMGWIYPGDGETEYAQKFQGRVTITADTSTSTAYMELSSLRSEDTAVYYCARGVYGGFAGGYFDFWGQGTLVTVSSASTKGPSVFPLAPSSKSTSGGTAALGCLVKDYFPEPVTVSWNSGALTSGVHTFPAVLQSSGLYSLSSVVTVPSSSLGTQTYICNVNHKPSNTKVDKRV[human IgG1 Fc omitted]
light: DIQMTQSPSSLSASVGDRVTITCKASQNIYKNLAWYQQKPGKAPKLLIYDANTLQTGVPSRFSGSGSGSDFTLTISSLQPEDFATYFCQQYYSGWAFGQGTKVEIKRTVAAPSVFIFPPSDEQLKSGTASVVCLLNNFYPREAKVQWKVDNALQSGNSQESVTEQDSKDSTYSLSSTLTLSKADYEKHKVYACEVTHQGLSSPVTKSFNRGEC

One test concerns ROR1 negative cells MCF7. Kind of test: Bystander effect test of anti-ROR1-ADC. It counts as cell-based, human. To be noted: supernatant from hROR1-MCF7, MCF7 negative cell. The protocol:
Cell culture: hROR1-MCF7 cells and MCF7 cells were cultured with a DMEM medium containing 10% fetal bovine serum+1% penicillin-streptomycin at 37° C. with 5% CO2. Cells at logarithmic growth phase were available for the experiment.
Bystander effect detection: The supernatant after incubation of the ADC to be detected with ROR1 positive cells hROR1-MCF7 was transferred to ROR1 negative cells MCF7 for further incubation, and the Cell-Titer Glo reagent was used for detecting the influence of the supernatant on the cell proliferation activity of MCF7, so that the bystander effect of the ADC was reflected. hROR1-MCF7 cells were digested and pipetted in cell culture flasks, and resuspended using the corresponding fresh medium. The cell density was adjusted. The cells were seeded on a 96-well plate at 20000 cells/180 L/well and incubated at 37° C. with 5% CO2 overnight. The ADC concentration was diluted to 5000 nM with a complete medium and subjected to 3-fold gradient dilution to give a total of 8 concentration gradients, and then 20 μL of an ADC diluted solution was transferred to the 96-well plate, i.e., the initial concentration of the ADC was 500 nM. The 96-well plate was incubated at 37° C. with 5% CO2 for 5 days. 150 μL of the supernatant in the hROR1-MCF7 cell culture plate was pipetted and transferred to the MCF7 cell plate (1500 cells/50 μL/well) seeded one day in advance, and incubated at 37° C. with 5% CO2 for 5 days. The Cell-Titer Glo reagent was added and the cell activity was measured.
(§1) A negative control group and a positive control group were respectively used as Bottom and Top. The negative control group was not added with cells, only added with the culture medium in the same volume, and other operations were consistent with those of the experimental group. The positive control group was not added with the test drug, and other operations were consistent with those of the experimental group.
(§2) % Inhibition was calculated and fitted to give compound IC50.
(§3) Signal referred to the signal value of the experimental group, Bottom referred to the average signal value of the negative control group, and Top referred to the average signal value of the positive control group.
On to B1, for which the “Maximum inhibition rate (%)” value is listed as 57.76%.

Consider B2, for which the “Maximum inhibition rate (%)” value amounted to 53.70%.

B3: the “Maximum inhibition rate (%)” value came out at 61.37%.

With B4, the “Maximum inhibition rate (%)” value amounted to 57.86%.

For the molecule B5, the “Maximum inhibition rate (%)” value is given as 56.83%.

Consider B6, for which the “Maximum inhibition rate (%)” value worked out at 53.62%.

The same test, now with this note: supernatant from hROR1-MCF7 incubated with ADC 5 days, then 5 days on MCF7; read-out: IC50 (negative cell).
A word on the IC50: it is the point on the concentration scale where inhibition reaches its midpoint. Regarding B1, the IC50 came out at 0.1 nM.

B2: the IC50 is 0.07 nM.

For the molecule B3, the IC50 is 0.02 nM.

In the case of B4, the IC50 stood at 0.03 nM.

B5: the IC50 is 0.03 nM.

B6: the IC50 was 0.05 nM.

The next test concerns OVCAR3 cells. Kind of test: Anti-tumor cell proliferation activity of anti-CDH6-ADC, OVCAR3. It counts as cell-based, human. The following applies: 5 days.
Excerpt: (§4) Cell and material: The human ovarian cancer cell line OVCAR3 (CDH6 high-expression cell strain) was purchased from ATCC, the human ovarian teratoma cell line PA-1 was purchased from ATCC, bovine serum, 1640 medium (Gibco #A10491-01), MEM medium (Gibco #11095-080), MEM NEAA (Gibco #11140-050), sodium pyruvate (Gibco #11360-070), penicillin-streptomycin, and 0.25% Trypsin-EDTA (Gibco #25200-056) were purchased from Gibco, bovine insulin was purchased from Solarbio, 96 well plates were purchased from Corning (U.S.), and Cell-Titer Glo reagent was purchased from Promega (U.S.).
(§5) Cell culture: OVCAR3 cells were cultured with a 1640 medium containing 20% fetal bovine serum +2 μg/mL bovine insulin+1% penicillin-streptomycin at 37° C. with 5% CO2, and PA-1 cells were cultured with an MEM medium containing 10% fetal bovine serum+1% MEM NEAA+1% sodium pyruvate+1% penicillin-streptomycin at 37° C. with 5% CO2. Cells at logarithmic growth phase were available for the experiment.
(§6) Cell proliferation activity test: The Cell-Titer Glo reagent was used to test ADC for inhibitory activity on proliferation of both OVCAR3 and PA-1 cell strains. OVCAR3 and PA-1 cells were digested and pipetted in cell culture flasks, and resuspended using the corresponding fresh medium. The cell density was adjusted. OVCAR3 cells (5000 per well) and PA-1 (800 per well) were seeded on 96-well plates and incubated at 37° C. with 5% CO2 for 24 h. After the ADC solution to be detected was added (the ADC was diluted with the medium for the corresponding cells described above, the ADC concentration was adjusted to 100 nM, then the medium was continuously and serially diluted 3-fold to give a total of 8 concentrations, and 10 μL of the prepared ADC solution was transferred to the 96-well plate so that the final concentration was 0-10 nM), the mixture was incubated at 37° C. with 5% CO2. OVCAR3 cells and PA-1 cells were cultured for 5 days. The Cell-Titer Glo reagent was added and the cell activity was measured.
as §1
(§7) Data analysis: % Inhibition was calculated, and compound IC50 was fitted.
as §3
Take B7: half-maximal inhibition (IC50) required 0.012 nM.

A further test deals with PA-1 cells. Kind of test: Anti-tumor cell proliferation activity of anti-CDH6-ADC, PA-1. To be noted: 5 days. It counts as cell-based, human.
Excerpt: as §4, §5, §6, §1, §7, §3
In turn, B7 returned an IC50 of 0.063 nM.

The next test deals with hROR1-MCF7 cells. Put plainly: Anti-tumor cell proliferation activity of anti-ROR1-ADC, hROR1-MCF7. It counts as cell-based, human. The following applies: 5 days. The protocol: Cell and material: The human breast cancer cell line hROR1-MCF7 was constructed by Simcere Zaiming, DMEM medium (Gibco #11995-065), penicillin-streptomycin (Gibco #15140-122), and 0.25% Trypsin-EDTA (Gibco #25200-056) were purchased from Gibco (U.S.), 96 well plates (Greiner Bio-one #655098) was purchased from Corning (U.S.), and Cell-Titer Glo reagent (Promega #G7568) was purchased from Promega (U.S.).
Cell culture: hROR1-MCF7 cells were cultured with a DMEM medium containing 10% fetal bovine serum+1% penicillin-streptomycin at 37° C. with 5% CO2. Cells at logarithmic growth phase were available for the experiment.
Cell proliferation activity test: The Cell-Titer Glo reagent was used to test ADC for inhibitory activity on proliferation of hROR1-MCF7 cell strains. hROR1-MCF7 cells were digested and pipetted in cell culture flasks, and resuspended using the corresponding fresh medium. The cell density was adjusted. hROR1-MCF7 cells were seeded on a 96-well plate at 1700 cells/90 μL/well and incubated at 37° C. with 5% CO2 overnight. The ADC concentration was diluted to 500 nM with a complete medium and subjected to 4-fold gradient dilution to give a total of 9 concentration gradients, and then 10 μL of an ADC diluted solution was transferred to the 96-well plate, i.e., the initial final concentration of the ADC was 50 nM. The 96-well plate was incubated at 37° C. with 5% CO2 for 5 days. The Cell-Titer Glo reagent was added and the cell activity was measured.
as §1, §2, §3
Take B1: the IC50 was determined as 0.31 nM and the “hROR1-MCF7 Maximum inhibition rate (%)” value is 42.34%.

Consider B2, for which the IC50 is 0.22 nM and the “hROR1-MCF7 Maximum inhibition rate (%)” value is listed as 44.73%.

As to B3, inhibition was half-maximal at 0.04 nM (IC50) and the “hROR1-MCF7 Maximum inhibition rate (%)” value came to 37.45%.

For the molecule B4, 0.03 nM corresponded to half-maximal inhibition (IC50) and the “hROR1-MCF7 Maximum inhibition rate (%)” value was found to be 44.77%.

Consider B5, for which it took 0.18 nM to reach half-maximal inhibition (IC50) and the “hROR1-MCF7 Maximum inhibition rate (%)” value is listed as 39.88%.

With B6, the IC50 is 0.1 nM and the “hROR1-MCF7 Maximum inhibition rate (%)” value was 38.61%.
